Where “and” joins values, the source holds several entries; their conditions need not be identical. Equal values may be shown once.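 Grown in 96-well plates, cells were treated for 48 hours with each compound at five concentrations. Insufficient inhibition: endpoint recorded as highest concentration tested. At the GI50, growth is halved.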 Calls of active or inactive are those of the source. No stated cut-off is given here; in the data, active = GI50 up to about 1.1 µM and inactive = higher. Peptide text beside a SMILES is read from it.
Each compound was assayed on NCI-H322M (assay: growth of human tumour cells (NCI), 48 h).
In the case of CCCc1nnc2sc(COc3cc(Cl)c(OCc4nn5c(CCC)nnc5s4)cc3Cl)nn12, the GI50 is reported as inactive: 61.9 µM.
With N#Cc1c2c(c(Nc3cccc(C(F)(F)F)c3)n3c1nc1ccccc13)CCCC2 the GI50 was inactive: 14.6 µM.
For O=C1Cc2c([nH]c3cc(Br)ccc23)-c2ccccc2N1, the GI50 was inactive: 12.1 µM.
With CCOC(=O)C(NO)C(Sc1ccccc1)c1ccc(OC)cc1 (stereo not given) the GI50 was inactive: > 100 µM.
For CC1(S)CC2C(CC1Sc1ccccc1)C2(C)C (stereo not given), the GI50 was inactive: > 100 µM.
NCc1c(C(N)=O)ncn1Cc1ccccc1 was tested, and the GI50 was inactive: > 100 µM.
For N/C(=N\N=C\c1cc2ccccc2s1)c1cnccn1, the GI50 was inactive: > 100 µM.
In the case of CCC12CC(c3ccccc3)C(C(=O)N1)C(=O)N2 (stereo not given), the GI50 is reported as inactive: > 100 µM.
With COc1cc(C2C3=C(COC3=O)Oc3cc4c(cc32)OCO4)ccc1OC(C)=O (stereo not given) the GI50 was active: 0.589 µM.
With CC(=O)O[C@H]1CN(S(=O)(=O)c2ccc(C)cc2)C[C@@H]1C1CCCCC1 the GI50 was inactive: 42.9 µM.
With CC(C)CC(NC(=O)C(CC(C)C)NC(=O)C(Cc1c[nH]cn1)NC(=O)C(C)NC(=O)C(NC(=O)C(C)NC(=O)C(Cc1c[nH]c2ccccc12)NC(=O)C(CCC(=O)O)NC(=O)C(N)Cc1ccccc1)C(C)C)C(N)=O (stereo not given) (H-FEWAVAHLL-NH2; configuration not given here) the GI50 was inactive: > 12.5 µM.
COc1cccc(C(=O)C2C(=O)N(C)CCc3ccccc32)c1OC (stereo not given) was tested, and the GI50 was inactive: > 100 µM.
In the case of N#CCC(=O)N/N=C\C(O)C(O)C(O)C(O)CO (stereo not given), the GI50 is reported as inactive: > 100 µM.
CC(OC(=O)NCn1cc(-c2ccccc2)nn1)c1ccccc1 (stereo not given) was tested, and the GI50 was inactive: > 100 µM.
CC(C)(C)C1=Nc2c(Br)cc(C(C)(C)C)cc2C(C(F)(F)F)(C(F)(F)F)O1 was tested, and the GI50 was inactive: > 100 µM.
With OC(CBr)C(O)C(O)C(O)CBr (stereo not given) the GI50 was inactive: > 100 µM and inactive: > 80.2 µM.
With CN(C)CCCNC(=O)c1c(-c2cccnc2)cnc2ccccc12 the GI50 was inactive: > 100 µM.
In the case of N#CCCN(CCC#N)c1ccc(/C=C2\SC(=S)NC2=O)cc1, the GI50 is reported as inactive: > 100 µM.
CN(C)CCC1(C2=CCCC2)CC/C(=C\c2ccccc2Cl)C1=O (stereo not given) was tested, and the GI50 was inactive: 14.5 µM.
For CN1C/C(=C\c2ccccc2)C2=NN(C(N)=S)[C@H](c3ccccc3)[C@@H]2C1, the GI50 was inactive: > 100 µM.
For Cc1nc(N)sc1C(=O)/C=C/c1ccc([N+](=O)[O-])cc1, the GI50 was inactive: > 100 µM.
In the case of COc1ccc(/C=C\c2cc(OC)c(OC)c(OC)c2)cc1OC(=O)C(N)CCC(=O)O (stereo not given), the GI50 is reported as active: 0.000473 µM.
In the case of O=C(Nc1ccc(Cl)cc1)NS(=O)(=O)c1coc2cc(F)ccc2c1=O, the GI50 is reported as inactive: > 100 µM.
For COc1ccc2c(c1)CC[C@@H]1C2CC[C@](C)(C#N)C1CC#N (stereo not given in full), the GI50 was inactive: > 100 µM.
In the case of COP(=O)(OC)C(O)/C=C(\Cl)c1ccc(Cl)cc1 (stereo not given), the GI50 is reported as inactive: > 100 µM.
For Cc1ccc(C(=O)/C=C/c2ccccc2Cl)cc1, the GI50 was inactive: 27 µM.
CCN(CC)CCCC(C)Nc1c2ccc(Cl)cc2nc2ccc(OC)cc12 (stereo not given) was tested, and the GI50 was inactive: 1.69 µM.
For OCCN(CCO)c1ncnc2c1sc(=S)n2-c1ccccc1, the GI50 was inactive: > 100 µM.
With O=C(CC(=O)Nc1ccccc1)NNC(Sc1ccccc1)c1cc(/N=N/c2ccc(Br)cc2)ccc1O (stereo not given) the GI50 was inactive: 1.28 µM.
For O=c1c2cc3c(=O)n4c(cc(-c5ccccc5)c5cc(Cl)ccc54)nc3cc2nc2cc(-c3ccccc3)c3cc(Cl)ccc3n12, the GI50 was inactive: > 100 µM.
CCOC(=O)/C(=C\NC(=S)Nc1ccc(OCC)cc1)C(=O)c1ccccc1 was tested, and the GI50 was inactive: > 100 µM.
For O=C(/C(=C\I)c1ccccc1)c1ccccc1, the GI50 was inactive: 6.9 µM.
For CCOC(=O)C1CCC(=O)N1C(=O)c1ccccc1 (stereo not given), the GI50 was inactive: > 100 µM.
For COC1(OC)CCCCC2c3cccc(OC(C)=O)c3C21OC(C)=O (stereo not given), the GI50 was inactive: > 100 µM.
With CSc1cccc(NC(=O)OC2CCCCCCCCCCC2)c1 the GI50 was inactive: 24.7 µM.
In the case of COc1cccc(/C=C2\N=C(c3ccccc3)OC2=O)c1, the GI50 is reported as inactive: > 100 µM.
N#C/N=C1\NC(Cc2ccccc2)C(=O)N1CCc1c[nH]c2ccccc12 (stereo not given) was tested, and the GI50 was inactive: 59.7 µM.
For c1cc(-c2ccc(-c3ccc(C4=NCCCN4)cc3)o2)ccc1C1=NCCCN1, the GI50 was inactive: > 100 µM.
In the case of O=C1/C(=C/c2ccc(Br)cc2)CCC/C1=C\c1ccc(Br)cc1, the GI50 is reported as inactive: 19.6 µM.
With CCCCOc1ccc(S(=O)(=O)N/C(N)=N/c2ccc(Cl)cc2)cc1 the GI50 was inactive: 13.9 µM.
For COc1ccc2c(c1O)[C@@]13CCCC=C1[C@@H](C2)N(C)CC3, the GI50 was inactive: > 100 µM.
For c1csc(-c2cc(-c3ccsc3)c(-c3ccsc3)s2)c1, the GI50 was inactive: 83 µM.
O=C(O)CNC(=O)C1NC(C(F)(F)F)(C(F)(F)F)OC1(C(F)(F)F)C(F)(F)F (stereo not given) was tested, and the GI50 was inactive: > 100 µM.
For C1OC1CN1CCN(CC2CO2)CC1 (stereo not given), the GI50 was inactive: > 100 µM.
For O=C(/C=C/c1c(O)ccc2ccccc12)c1cccc2ccccc12, the GI50 was inactive: > 100 µM.
In the case of O=C1c2cccc3cc([N+](=O)[O-])cc(c23)C(=O)N1CCCN1CCN(CCCNc2ccc3ncn4c5ccccc5c(=O)c2c34)CC1, the GI50 is reported as active: < 0.005 µM.
For O=c1[nH]n(Cc2ccccn2)c2ccc([N+](=O)[O-])cc12, the GI50 was inactive: > 100 µM.
CC(C)CC(=O)NC(Nc1ccc(S(=O)(=O)Nc2ncccn2)cc1)(C(F)(F)F)C(F)(F)F was tested, and the GI50 was inactive: > 100 µM.
For O=C(OCc1ccccc1)N(CCCCN(CCCNCc1ccccc1)C(=O)OCc1ccccc1)CCCNCc1ccccc1, the GI50 was inactive: 1.39 µM.
With COC1CC(OC2C(C)OC(OC3C(C)OC(OC4C(C)OC(O[C@H]5CC[C@@]6(C)C(=CC[C@]7(O)[C@@H]6C[C@@H](OC(C)=O)[C@@]6(C)[C@]7(O)CC[C@@]6(O)C(C)=O)C5)CC4OC)CC3OC)CC2OC)OC(C)C1O (stereo not given in full) the GI50 was inactive: > 25 µM.
CCCc1cc(=O)oc2c3c(c4c(c12)OC(C)(C)CC4)O[C@H](C)[C@@H](C)[C@H]3O was tested, and the GI50 was inactive: 15.8 µM.
For Cc1nc(C)c(N2CCN(S(N)(=O)=O)CC2)c(O)n1, the GI50 was inactive: > 100 µM.
For COc1ccc(-c2cnoc2-c2ccc(OC)c(OC)c2)cc1OC, the GI50 was inactive: 3.4 µM.
In the case of COc1ccc(OC)c2c1CC(C(=O)O)(C(=O)O)CC2=O, the GI50 is reported as inactive: > 100 µM.
Brc1c2nc3ccccc3nc2n2ccc3ccccc3c12 was tested, and the GI50 was inactive: > 100 µM.
For CCN(CC)CCCCC1CCN(CC(=O)N2c3ccccc3NC(=O)c3ccccc32)CC1, the GI50 was inactive: 81.8 µM.
In the case of CN1CC[C@]2(c3cccc(O)c3)CC(=O)/C(=C/c3ccccc3)[C@@H]1C2.[O-][Cl+3]([O-])([O-])O, the GI50 is reported as inactive: 10.3 µM.
With CON(C)C(=O)C(Cc1ccccc1)NC(=O)OCc1ccccc1 (stereo not given) the GI50 was inactive: > 100 µM.
For Cc1ncc([N+](=O)[O-])n1CCNC(=O)CCC(=O)NCCCn1ccnc1[N+](=O)[O-], the GI50 was inactive: > 100 µM.
O=C1/C(=C/C=C/c2ccccc2)N=C(c2ccccc2)N1c1ccc(S(=O)(=O)Nc2nccs2)cc1 was tested, and the GI50 was inactive: 45.2 µM.
CCc1ncc(CO)n1Cc1cccc2ccccc12 was tested, and the GI50 was inactive: > 100 µM.
In the case of CSc1nc2c(c(=O)[nH]1)N=C(c1ccc(Cl)cc1)CC(c1ccccc1)N2 (stereo not given), the GI50 is reported as inactive: 17.5 µM.
CC(=O)OCCOCNC(=S)N/N=C/c1cc(Br)cs1 was tested, and the GI50 was inactive: > 100 µM.
With CC1(C)[C@@H]2C[C@H]1c1cnc(-c3ccccn3)cc1C2[C@@H]1c2cc(-c3ccccn3)ncc2[C@@H]2C[C@H]1C2(C)C (stereo not given in full) the GI50 was inactive: 71.9 µM.
COc1ccc(/N=C2\C(=S)N(c3ccc(OC)cc3)/C(=N/S(=O)(=O)c3ccccc3)N2c2ccccc2)cc1 was tested, and the GI50 was inactive: > 56.9 µM.
With C[C@]1(O)CC[C@H]2[C@@H]3CCc4cc(O)ccc4[C@H]3CC[C@@]21C the GI50 was inactive: 1.95 µM.
With CCOC(=O)c1c2cccccc-2nc1Nc1cccc2c(C)ccnc12 the GI50 was inactive: > 10 µM.
For N#Cc1sc2c(c1OC(=O)c1ccc(Cl)cc1Cl)c(=O)n(-c1ccccc1)c(=S)n2-c1ccccc1, the GI50 was inactive: 44.8 µM.
O=c1oc2ccccc2c2c1Sc1ccccc1N2 was tested, and the GI50 was inactive: 55.3 µM.
CC(=O)OC12CCCCC1C1(CCCC1)NC2=O (stereo not given) was tested, and the GI50 was inactive: > 100 µM.
For O=C(O)c1cccc2cccc(-c3cccc4cccc(C(=O)O)c34)c12, the GI50 was inactive: > 100 µM.
With O=CCCCC(Sc1ccccc1)Sc1ccccc1 the GI50 was inactive: > 100 µM.
In the case of NC(=O)CC(N)C(=O)NC(Cc1ccccc1)C(=O)NC(Cc1ccccc1)NC(=O)C(Cc1c[nH]c2ccccc12)C(=O)O (stereo not given), the GI50 is reported as inactive: > 100 µM.
For COC(=O)CCC(=O)c1ccc2c(c1)CC1(C2)Cc2ccc3c(c2C1)CCCC3=O (stereo not given), the GI50 was inactive: > 67.5 µM.
CC1OC(OC2C(CO)OC(O[C@H]3CC[C@@]4(C)C(=CC[C@H]5[C@@H]6C[C@@H]7O[C@](O)(CC[C@H](C)COC8OC(CO)C(O)C(O)C8O)[C@@H](C)[C@@H]7[C@@]6(C)CC[C@@H]54)C3)C(OC3OC(C)C(O)C(O)C3O)C2O)C(O)C(O)C1O (stereo not given in full) was tested, and the GI50 was inactive: 4.59 µM.
[N-]=[N+]=Nc1cc(=O)n2c3c(cccc13)CCC2 was tested, and the GI50 was inactive: > 100 µM.
NCCNC(=O)CN(CC(=O)O)C1CCCCC1N(CC(=O)O)CC(=O)O (stereo not given) was tested, and the GI50 was inactive: > 100 µM.
With NCc1ccc(O)c(O)c1 the GI50 was inactive: > 100 µM.
In the case of COc1cc(C2SCC(=O)N2c2ccc(Cl)c(Cl)c2)cc(OC)c1OC (stereo not given), the GI50 is reported as inactive: 37.8 µM.
CCCn1cnc2c(SCc3ccc(Cl)cc3)nc(N)nc21 was tested, and the GI50 was inactive: 28.6 µM.
In the case of OC(c1cccnc1)C(F)(F)c1nc2ccccc2o1 (stereo not given), the GI50 is reported as inactive: > 100 µM.
For CC(C)C1(Cl)CCC2C3(C)CCCC(C)(C(=O)O)C3CC(Cl)C2(Cl)C1Cl (stereo not given), the GI50 was inactive: 25.3 µM.
In the case of COc1cc2ccc(/C(C)=N/OC(C)=O)cc2cc1OC, the GI50 is reported as inactive: > 100 µM.
CC(=O)N1C(=O)C(=O)c2cc(Cl)ccc21 was tested, and the GI50 was inactive: > 100 µM.
For CN(C)c1ccc(O[Si](Oc2ccc(N(C)C)cc2)(Oc2ccc(N(C)C)cc2)Oc2ccc(N(C)C)cc2)cc1, the GI50 was inactive: > 100 µM.
Cc1cc(=O)oc2c(CN3CCCCC3)c(O)ccc12 was tested, and the GI50 was inactive: > 100 µM.
In the case of CC(=O)c1c(C)cn(S(=O)(=O)NC(=O)Nc2nncs2)c1C, the GI50 is reported as inactive: > 100 µM.
In the case of O=C(O)c1c([N+](=O)[O-])cc(C(F)(F)F)cc1[N+](=O)[O-], the GI50 is reported as inactive: > 100 µM.
For [O-][n+]1onc(-c2ccccc2)c1CN1CCOCC1, the GI50 was inactive: > 100 µM.
With Sc1ccccc1S the GI50 was inactive: > 100 µM.

Source: ChEMBL document CHEMBL1201862, “PubChem BioAssay data set” (2004)
